This note sets out measurements from PubChem BioAssay AID463173 (ICCB-Longwood Screening Facility, Harvard Medical School, 2010).

The whole screen tested about 52,000 compounds, of which about 4,300 (8.3%) were called active. Rule as the data show it: active = survival mostly below about 52% (no sharp cut-off); inactive = mostly above about 56%. The list shows a part of the results.

This assay has as its system DeltatarO mutant. The assay is described as follows: S. aureus survival, RN4220 and DeltatarO strains – OD600, teichoic acid synthesis inhibitors, primary screen (AID 463173). As to conditions: S. aureus RN4220 wild type/DeltatarO growth, OD600, 18 h, stronger effect = lower value, screened at 18.75 µg/mL (by protocol).
`O=C(CCCCn1c(=O)c2ccccc2n(CC(=O)Nc2ccccc2)c1=O)NCc1ccccc1Cl`: the survival is inactive: 93%. For `Cc1c(C)n(Cc2ccccc2)c2ccc(C(=O)NCc3ccc(OC(C)C)cc3)cc12`, the survival is inactive: 115%. Next, `CCOC(=O)c1sc(NC(=O)C(C)Sc2nc(-c3ccccc3)cc(C(F)(F)F)n2)c(C(=O)OC)c1C` (stereo not given): inactive: 159%; `Cc1ccc(NC(=O)c2cnc(N3CCCCC3)c3ccccc23)cc1Cl`: inactive: 87%; `Cc1n[nH]c(C)c1CCc1nc2c3ccccc3nc(SCC(=O)Nc3ccc(F)cc3)n2n1`: inactive: 115%. Turning to `Cc1ccc(OCCn2cc(C(=O)c3ccco3)c3ccccc32)cc1C`, the survival is active: 27%.

For `CCCC(=O)C1=C(c2ccc(C)cc2)N(C(=O)CCC)n2cnnc2S1`, the survival is inactive: 130%. Next, `COc1cccc(-c2nc3cc(C)ccc3o2)c1`: inactive: 103%. Next, `COc1ccc(-c2nc3scc(CCNS(=O)(=O)c4ccc(F)c(C(F)(F)F)c4)n3n2)cc1OC`: inactive: 88%; `CCN1CCN(c2cc(C)c3cc(NC(=O)c4cccc(Cl)c4)ccc3n2)CC1`: active: 23%; `c1ccc(-c2cc3ccsc3s2)cc1`: inactive: 99%. The figure for `O=C(Oc1ccccc1Cl)c1cc(-c2ccc3c(c2)OCCO3)on1` is active: -2%. With `O=C1CN(c2ccccc2)C(=Nc2ccccc2)S1`, the survival is inactive: 61%. Next, `O=C(Nc1nnc(S(=O)(=O)N2CCCCC2)s1)c1ccc(F)cc1`: inactive: 79%; `Cc1cc(C)c(Cn2c3ccccc3c3cnn(CC(=O)NCc4ccc(Cl)cc4)c(=O)c32)c(C)c1`: inactive: 123%. As to `CC1=C(C(=O)Nc2ccccc2C)C(c2ccco2)n2ncnc2N1` (stereo not given), the survival was inactive: 101%. The figure for `CCOc1ccc(NC(=O)c2cc(S(=O)(=O)N3CCCC3)c[nH]2)cc1` is inactive: 108%; for `Cc1noc(Cn2c(=O)c3ccccc3n(CC(=O)Nc3ccc(F)cc3F)c2=O)n1` it is inactive: 88%; for `NC(=O)c1oc2ccccc2c1NC(=O)c1ccccc1` it is inactive: 68%. Consider `Cc1ccc(CNC(=O)Cn2cc(S(=O)(=O)Cc3cccc(Cl)c3)c3ccccc32)cc1`, for which the survival was inactive: 85%. Regarding `COc1ccc(NC(=O)COc2ccc(S(=O)(=O)NC3CCCCC3)cc2)c(OC)c1`, the survival is inactive: 66%. As to `O=C(CCCc1nc(-c2ccccc2)no1)Nc1cc(C(F)(F)F)cc(C(F)(F)F)c1`, the survival is active: 19%. The figure for `O=C(CSc1nc(-c2ccccc2)c2ccccc2n1)Nc1ccc(F)cc1` is inactive: 82%; for `CC1=C(C(=O)N2CCCCC2)C(c2cccc(Cl)c2)n2c(nc3ccccc32)N1` (stereo not given) it is inactive: 64%; for `Cc1cc(C)c(S(=O)(=O)NCCc2cc3ccc(C)cc3[nH]c2=O)c(C)c1` it is inactive: 66%. For `CCOc1ccc(CCNC(=O)c2ccc3c(c2)N(Cc2ccccc2)C(=O)c2ccccc2S3=O)cc1OCC` (stereo not given), the survival was inactive: 71%. Next, `O=C(CN(c1cc(C(F)(F)F)ccc1Cl)S(=O)(=O)c1ccccc1)NCCc1ccccc1`: inactive: 66%; `COc1ccc(-c2c(C#N)c(SCC(=O)Nc3ccc(Br)cc3)nc(C)c2C(=O)Nc2ccccc2)cc1`: inactive: 95%; `COC(=O)c1ccccc1NC(=O)c1cc2c(s1)-c1ccccc1OC2`: active: 39%.

For the molecule `O=c1c(Cl)c(N2CCCCC2)cnn1C12CC3CC(CC(C3)C1)C2`, the survival is inactive: 95%. On to `CC1CCN(S(=O)(=O)c2ccc3nc(NCc4ccc(F)cc4)ccc3c2)CC1`, for which the survival is inactive: 94%. Next, `CCn1nnc2cc(C(=O)Nc3ccc(C)cc3Br)ccc21`: inactive: 118%; `CC(C)(C)OC(=O)N1CCC(c2nnc(SCc3ccccc3F)o2)CC1`: inactive: 57%; `CCOc1ccc(CCNc2ncnc3onc(-c4ccc(Cl)cc4)c23)cc1`: inactive: 76%. Next, `COc1ccc(C)cc1NC(=O)C(=O)NCCc1csc2nc(-c3ccccc3F)nn12`: inactive: 72%; `O=c1c2oc3ccccc3c2n(Cc2ccccc2)c(=O)n1Cc1ccco1`: inactive: 95%. Next, `Cc1nn2c(=O)cc(COC(=O)c3ccc(NC(=O)COc4ccc(Cl)cc4)cc3)nc2s1`: inactive: 107%; `CCN1C(=O)c2ccccc2S(=O)c2ccc(C(=O)N3CCN(c4ccccc4)CC3)cc21` (stereo not given): inactive: 72%. Regarding `Cc1ccc(S(=O)(=O)c2nnn3c2nc(N2CCC(C)CC2)c2cc(Cl)ccc23)cc1C`, the survival was inactive: 78%.

Take `CCOC(=O)c1c(NC(=O)/C=C/c2ccc(OCC)c(OC)c2)sc2c1CCC2`: the survival was inactive: 56%.

On to `COc1cccc(CNC(=O)CCCN2C(=O)CSc3c2c(C)nn3-c2ccccc2)c1OC`, for which the survival was inactive: 102%. The figure for `CCc1ccccc1NC(=O)CN(c1ccc(OC)cc1)S(=O)(=O)c1c(C)n[nH]c1C` is inactive: 74%. The figure for `CCc1nnc(NC(=O)c2ccc(S(=O)(=O)N3CCCCC3C)cc2)s1` (stereo not given) is inactive: 65%; for `Cc1cccc(-c2nc3scc(CCNS(=O)(=O)c4ccc(F)cc4C)n3n2)c1` it is inactive: 94%; for `Cc1ccc(NC(=O)c2cc(S(=O)(=O)NCCC3=CCCCC3)ccc2F)cc1C` it is active: 20%. As to `COc1ccc(-c2csc(N(CC(C)C)C(=O)c3cccs3)n2)cc1`, the survival is inactive: 76%. The figure for `Cc1oc(-c2ccccc2)nc1CNC(=O)NC1CCCCC1` is inactive: 89%. Next, `COc1ccc(Nc2sc(C(=O)c3ccccc3)c(N)c2C(=O)Nc2cc(C)ccc2C)c(OC)c1`: inactive: 95%; `Cc1ccn2c(c1)nc(=O)c1cc(S(=O)(=O)N3CCCCC3)c(Cl)cc12`: inactive: 90%. On to `CCc1ccc(NC(=O)c2sc3nc(C)c(C(=O)Nc4ccc(C)cc4C)c(-c4ccco4)c3c2N)cc1`, for which the survival was inactive: 81%. Next, `Cc1c(NC(=O)c2cc(-c3ccc(Br)cc3)on2)c(=O)n(-c2ccccc2)n1C`: inactive: 51%. Next, `Cc1noc2ncnc(N3CCCC(C(=O)NC(C)C)C3)c12` (stereo not given): inactive: 71%; `Cc1ccc(Cl)cc1N1CCN(CCCNc2ncnc3onc(-c4ccc(Cl)cc4)c23)CC1`: inactive: 106%.

On to `COc1ccc(CCNC(=O)CSC2=Nc3ccccc3C3=NC(CCC(=O)NCc4ccccc4)C(=O)N23)cc1OC` (stereo not given), for which the survival is inactive: 107%. In the case of `Cc1cccc(CCNC(=O)C2CCN(c3ncnc4c3nc3n4CCCCC3)CC2)c1`, the survival is inactive: 87%. The figure for `Cc1cccc(NC(=O)CN2C(=O)c3ccccc3Sc3ncccc32)c1C` is inactive: 90%; for `CCOC(=O)/C=C1\NC2(CCCC2)Cc2cc(OC)c(OC)cc21` it is inactive: 97%; for `O=C(CCCc1ccccc1)NC1CCCC1` it is inactive: 88%. The figure for `CCn1c(NCc2ccc(OC)c(OC)c2)nc2ccccc21` is inactive: 116%; for `Cc1cccc2cc(CN(CC3CCCO3)C(=O)CC(C)(C)C)c3nnnn3c12` (stereo not given) it is inactive: 73%; for `CCCCCn1c(CCCNC(=O)c2cccc(C)c2)nc2ccccc21` it is inactive: 51%. Next, `COc1ccc(NC(=O)c2ccc(NC(=O)CCS(=O)(=O)c3cccs3)cc2)cc1OC`: inactive: 50%; `CCOC(=O)c1cc(-c2ccccc2)n(CCC(=O)Nc2cc(OCC)ccc2OCC)c1C`: inactive: 73%. `CC(C)CNC(=O)C1C2C=CC(C2)C1C(=O)O` (stereo not given): the survival was inactive: 93%. The figure for `Cc1ccc(C(=O)Nc2nc3ccc(S(=O)(=O)N4CCCC4)cc3s2)cc1` is inactive: 73%; for `Cc1ccc(-c2nnc(SCC(=O)NC3CCCC3)nc2-c2ccc(C)cc2)cc1` it is inactive: 78%; for `COc1ccc(CN2C(=O)c3oc4ccc(F)cc4c(=O)c3C2c2ccc(O)cc2)cc1` (stereo not given) it is inactive: 96%. Next, `CCOc1ccc(NC(=O)CCC(=O)N2CC(C)Oc3ccc(C)cc32)cc1` (stereo not given): inactive: 67%; `COc1ccc(C)cc1NC(=O)C1CCN(S(=O)(=O)c2c(C)noc2/C=C/c2ccco2)CC1`: inactive: 78%. The figure for `COc1cccc(-n2c(-c3ccc(Cl)cc3)cc3c2CC(C)(C)CC3=O)c1` is active: 35%; for `O=C(Nc1ccc(F)cc1F)C(Cc1ccccc1)N1Cc2ccccc2C1=O` (stereo not given) it is active: -4%. As to `O=C(CCC(=O)N1CC2CCCN2c2ccccc21)NCc1cccc(Cl)c1` (stereo not given), the survival is active: 37%. With `COc1cc2c(=O)n(Cc3ccccc3Cl)c(=O)n(CC(=O)Nc3ccccc3)c2cc1OC`, the survival is inactive: 75%. For `Cc1ccc(C(=O)n2nc(-c3ccco3)nc2NCc2cccs2)cc1`, the survival was inactive: 69%. The figure for `CC(C)CNS(=O)(=O)c1ccccc1` is inactive: 86%; for `CC(C)Nc1nc(NC(C)C)nc(N(C)C)n1` it is inactive: 77%; for `CCCCn1cc2c(c1-c1ccccc1Br)c(=O)n(C)c(=O)n2C` it is inactive: 76%. The figure for `Cc1nc(N2CCOCC2)c2c(C(=O)NCCc3ccccc3)c(C)oc2n1` is active: 0%; for `CCc1nn(C(C)C(=O)N2CCN(c3cccc(C(F)(F)F)c3)CC2)c(=O)c2cc3occc3n12` (stereo not given) it is inactive: 73%.

With `COC(=O)CNc1cccc(C(F)(F)F)c1`, the survival is inactive: 64%. The figure for `COc1cc(OC)cc(-c2nc3nc(C)c(CCC(=O)Nc4ccc(F)cc4F)c(C)n3n2)c1` is inactive: 113%; for `CCCNC(=O)c1c(C)nn(-c2cccc(C)c2)c1-n1cccc1` it is inactive: 60%. The figure for `CCC1=NN(C(=O)Cc2ccccc2)C(O)(c2ccccc2)C1` (stereo not given) is inactive: 77%. Take `CCN(CC)CCNC(=O)c1nn(-c2ccc(OC)c(Cl)c2)c(=O)c2c1c1ccccc1n2C`: the survival is inactive: 109%.

As to `O=C(NCCc1ccccc1)C1(c2cccs2)CCOCC1`, the survival is inactive: 77%. With `CN(C)S(=O)(=O)n1cc(/C=C(\NC(=O)c2ccccc2Cl)C(=O)NCCCn2ccnc2)c2ccccc21`, the survival is inactive: 89%. Next, `O=C(NCCc1ccccc1Cl)c1ccc2c(c1)nc1n2CCOC1`: inactive: 74%; `O=C(CSc1nc2c(c(=O)[nH]1)CN(Cc1ccc(F)cc1)CC2)Nc1ccccc1Cl`: inactive: 80%; `CCOc1ccccc1CNCCNC(=O)c1nonc1N`: inactive: 134%. As to `C=CCN1C(=O)CSC1=Nc1ccc(C(=O)O)cc1`, the survival was inactive: 63%.
